{
  "source": "PubChem BioAssay AID588855",
  "about": "(National Center for Advancing Translational Sciences (NCATS), 2011)",
  "note": "“And” between values parts separate entries of the source, which are not always exact repeats. Equal values may be shown once. Among all 410,000 compounds or so, about 5,000 (1.2%) were called active. Inconclusive results, whose numbers are uncertain, are shown with a selection of clear calls. The call rests on the fitted dose curve; in most records, active means well fitted inhibition curve with a large enough effect; inconclusive means small, poorly fitted or top-dose-only effect; inactive means no such curve, though single readings can be large or run the other way. Potencies of inconclusive entries are doubtful fits and often do not repeat.",
  "data": [
    {"test": "qHTS for Inhibitors of TGF-b; further: nearly all actives have a fitted effect of over 65% in size; further: potency means the concentration at half of the fitted maximal effect; tags describe the fitted curve by direction and shape; on activity, negative = inhibition: on the % scale 0 is the no-effect control and ±100 the full control effect", "conditions": "HepG2 CAGA-GFP TGF-b/SMAD3 reporter, GFP fluorescence, 18 h, TGF-beta stimulated, 500 pg/mL final; series mostly up to 46.1 µM; activity, negative = inhibition: at the top concentration", "in_short": "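HEPG2 CAGA-GFP, 1000 cells/well; 2 h settle, 37 C; cpd via pin tool; TGF-b 500 pg/mL final; 18 h, 37 C; GFP imaging ex488/em500-530; %Activity normalised to -TGF-b and +DMSO controls; CRC fit, curve class.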", "values": [
      {"compound": "Cc1cc(Cl)ccc1OC(C)C(=O)Nc1ccc(S(=O)(=O)Nc2cnc3ccccc3n2)cc1", "note": "(centres undefined)", "Potency": "inconclusive: 35.5 µM [inhibitor, partial curve, poor fit]"},
      {"compound": "COc1ccc(COC(=O)C2=C(C)NC(=O)CC2c2cccc(Cl)c2Cl)cc1", "note": "(centres undefined)", "Potency": "inconclusive: 2.24 µM [inhibitor, full curve, poor fit]"},
      {"compound": "CCOc1ccc(N2CC(=O)SC2=S)cc1", "Potency": "inconclusive: 35.5 µM [inhibitor, single point]"},
      {"compound": "CC(=O)c1ccc(NC(=O)c2noc3c2CCC3)cc1", "activity, negative = inhibition": "inactive: -0.199%"},
      {"compound": "C/C(=N\\NC(=O)COc1ccccc1-c1ccccc1)c1cccnc1", "Potency": "inconclusive: 35.5 µM [inhibitor, single point]"},
      {"compound": "CCC1(c2ccc(F)cc2)NC(=O)N(CC(=O)NC2CC2)C1=O", "note": "(centres undefined)", "Potency": "inconclusive: 0.447 µM [inhibitor, full curve, poor fit]"},
      {"compound": "O=C(CCS(=O)(=O)c1ccc(Br)cc1)N1CCN(Cc2ccccc2)CC1", "Potency": "inconclusive: 35.5 µM [inhibitor, partial curve, poor fit]"},
      {"compound": "O=[N+]([O-])c1ccc(/C=C2\\CCC(C3=CCCC3)=C2N2CCOCC2)cc1", "Potency": "inconclusive: 35.5 µM [inhibitor, single point]"},
      {"compound": "C#CCOCCOCCOCCNc1nc(N2CCN(C(=O)CCCCCCCCCCNC(=O)Cn3cc(CCCCCN)nn3)CC2)nc(N2CCN(C(=O)CCCCCCCCCCNC(=O)[C@@H](CCC(=O)O)n3cc(CCCCCN)nn3)CC2)n1", "Potency": "inconclusive: 15.8 µM [inhibitor, single point]"},
      {"compound": "O=[N+]([O-])c1ccccc1Nc1c2ccccc2nc2ccccc12", "activity, negative = inhibition": "inactive: -15.2%"},
      {"compound": "O=C(NCc1ccncc1)c1cccc(S(=O)(=O)N2CCc3ccccc32)c1", "Potency": "inconclusive: 11.2 µM [inhibitor, single point]"},
      {"compound": "N#C/C(=C(/O)c1ccc([N+](=O)[O-])cc1)c1nnc2n1CCCCC2", "activity, negative = inhibition": "inactive: -1.85%"},
      {"compound": "Cc1ccc(CNC(=O)Cn2c(=O)cc(C)c3c(C)nn(-c4cccc(F)c4)c32)cc1", "activity, negative = inhibition": "inactive: -13.5%"},
      {"compound": "Cc1noc(C)c1COC(=O)c1ccc(S(=O)(=O)NCc2ccco2)cc1", "Potency": "inconclusive: 3.98 µM [inhibitor, full curve, poor fit]"},
      {"compound": "Cc1ccc(C)c(N2CCN(S(=O)(=O)c3ccc(-c4cnc(C5CC5)o4)cc3)CC2)c1", "Potency": "inconclusive: 0.1 µM [inhibitor, full curve, poor fit]"},
      {"compound": "COc1cc(NC(=O)N2CCc3nc(NCc4cccc(Oc5ccccc5)c4)ncc3C2)cc(OC)c1OC", "Potency": "inconclusive: 11.2 µM [inhibitor, single point]"},
      {"compound": "C#CCN1C(=O)S/C(=C/C=C/c2ccc(N(C)C)cc2)C1=O", "Potency": "inconclusive: 22.4 µM [inhibitor, single point]"},
      {"compound": "CCCCC(=O)Nc1ccc(C(=O)OC2CCCCC2)cc1", "Potency": "inconclusive: 35.5 µM [inhibitor, single point]"},
      {"compound": "CCN(C(=O)CN1CCN(S(=O)(=O)c2ccccc2C(F)(F)F)CC1)c1c(N)n(Cc2ccccc2)c(=O)[nH]c1=O", "activity, negative = inhibition": "inactive: 11.9%"},
      {"compound": "CCN(CC)S(=O)(=O)c1cccc(NC(=O)COc2ccc(Cl)cc2Br)c1", "Potency": "inconclusive: 35.5 µM [inhibitor, single point]"},
      {"compound": "COC(=O)[C@@H](CC(C)C)NS(=O)(=O)N(Cc1ccccc1)[C@@H](CC(C)C)C(=O)OC", "Potency": "inconclusive: 10 µM [inhibitor, partial curve] and inconclusive: 28.2 µM [inhibitor, single point]"},
      {"compound": "C=CCn1c(SCC(=O)NCCc2ccccc2)nnc1C(C)NC(=O)c1cccs1", "note": "(centres undefined)", "Potency": "inconclusive: 35.5 µM [inhibitor, single point]"},
      {"compound": "COc1ccc(OC)c(NC(=O)Cn2ccn(-c3ccc(OC)c(OC)c3)c(=O)c2=O)c1", "activity, negative = inhibition": "inactive: 0.159%"},
      {"compound": "CC1Cc2nc(SCC(=O)N3CCCCC3)n(C)c(=O)c2S1", "note": "(centres undefined)", "activity, negative = inhibition": "inactive: -9.28%"},
      {"compound": "COc1cc(OC)c(OC)cc1/C=C/C(=O)c1ccc(NS(=O)(=O)c2ccc(C)cc2)cc1", "Potency": "inconclusive: 12.6 µM [inhibitor, partial curve]"},
      {"compound": "CN1C(=O)C2(Oc3ccccc3C3CC(c4ccccc4)=NN32)c2ccccc21", "note": "(centres undefined)", "Potency": "inconclusive: 35.5 µM [inhibitor, single point]"},
      {"compound": "COc1ccccc1[C@]1(C)ON(c2ccccc2C(F)(F)F)C1=O", "Potency": "inconclusive: 14.1 µM [inhibitor, single point]"},
      {"compound": "CCN1CSC(=S)N(Cc2ccc(OC)cc2)C1", "Potency": "active: 3.98 µM"},
      {"compound": "O=C(CC1SC(=NCC2CCCO2)NC1=O)Nc1cc([N+](=O)[O-])ccc1Cl", "note": "(centres undefined)", "Potency": "inconclusive: 10 µM [inhibitor, partial curve, poor fit]"},
      {"compound": "O=C(Cc1ccc(Cl)cc1)Nc1ccc(Br)cn1", "activity, negative = inhibition": "inactive: -10.8%"},
      {"compound": "CCOC(=O)c1cc(-c2ccc(OC)c(S(=O)(=O)NCc3ccccc3Cl)c2)on1", "Potency": "inconclusive: 35.5 µM [inhibitor, single point]"},
      {"compound": "Cc1ccc(S(=O)(=O)Nc2ccc(O)c3ccccc23)c(C)c1", "Potency": "inconclusive: 14.1 µM [inhibitor, single point]"},
      {"compound": "Cc1ccc(S(=O)(=O)NCC(=O)OC(C)C(=O)NC2CCCCC2C)cc1C", "note": "(centres undefined)", "Potency": "inconclusive: 3.55 µM [inhibitor, single point]"},
      {"compound": "COC(=O)[C@@]12CCCN1[C@H](c1ccc(-c3ccc(Cl)c(Cl)c3)cc1)[C@H]1C(=O)N(C)C(=O)[C@H]12", "Potency": "inconclusive: 0.447 µM [inhibitor, full curve, poor fit]"},
      {"compound": "O=C1CCCN1CCCN=c1c([N+](=O)[O-])nn(-c2ccc(Cl)cc2)n1O", "Potency": "inconclusive: 11.2 µM [inhibitor, single point]"},
      {"compound": "O=C(NC1CCc2ccccc21)C1CCN(S(=O)(=O)c2ccc(Cl)cc2)CC1", "note": "(centres undefined)", "Potency": "inconclusive: 3.98 µM [inhibitor, single point]"},
      {"compound": "O=C(Nc1ccc(Oc2cccnc2)nc1)c1ccc(C(F)(F)F)cc1", "activity, negative = inhibition": "inactive: 0.183%"},
      {"compound": "COc1ccccc1Cn1c(=S)[nH]c2cc(C(=O)N3CCCC3)ccc2c1=O", "activity, negative = inhibition": "inactive: 1.24%"},
      {"compound": "Clc1ccc(-c2nnc(NCc3ccccc3)c3ccccc23)cc1", "Potency": "inconclusive: 35.5 µM [inhibitor, single point]"}
    ]}
  ]
}
